The list shows a part of the results. At the low end of the ranking the order means little. The protein was read in a cell extract, so binding may be indirect.
molecular target: T1, HNF4alpha8 (COS-7 nuclear extract) (UniProt P41235-5); assay: protein-binding microarray; conditions: COS-7 nuclear extract on double-stranded Agilent 4x180k PBM; binding buffer, salt, pH and temperature not given; high values mean tight binding; double strand, one strand shown; sequences stand for … in …GCCTAGGGAGATTAGAGTATCGGTCGA
T1 sequence: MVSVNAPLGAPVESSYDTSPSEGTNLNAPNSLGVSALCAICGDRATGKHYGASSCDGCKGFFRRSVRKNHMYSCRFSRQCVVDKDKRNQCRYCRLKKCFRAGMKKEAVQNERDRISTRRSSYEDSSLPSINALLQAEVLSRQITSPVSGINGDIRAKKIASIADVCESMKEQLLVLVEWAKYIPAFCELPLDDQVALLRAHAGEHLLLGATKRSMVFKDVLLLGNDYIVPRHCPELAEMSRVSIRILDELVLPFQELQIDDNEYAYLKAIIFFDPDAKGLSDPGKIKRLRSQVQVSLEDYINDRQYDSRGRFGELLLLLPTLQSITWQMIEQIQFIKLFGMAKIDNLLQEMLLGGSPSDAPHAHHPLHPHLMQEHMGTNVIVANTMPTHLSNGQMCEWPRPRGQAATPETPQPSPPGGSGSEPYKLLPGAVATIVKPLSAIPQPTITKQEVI

Row | Sequence | binding signal (log2 normalized intensity)
1 | AACCTATTAATATATTCATAACACTTGTAT | 1.22
2 | TGTGACCTTTGACTCATTATCCCCCGCAAC | 5.74
3 | CAATTTCCCCCATGAAATTGAGATAAACAT | 2.45
4 | GCCACATCCCCCACACCGAGATAGTAGAGA | 3.27
5 | CTCTTAGTATTACCATGTCCTGTGATTAAG | 1.16
6 | AGTGTATTGTTCCCTTGCTCCACCCTTCTA | 1.72
7 | ACTGCATTCCCTAGATGTCGCAGTAGATAA | -1.09
8 | AAGGTCACCTCTTCAGATAGCCTTTGCCTC | 1.81
9 | CTAAGGGCATCTACTTTTAAAACGCTCAAA | -1.28
10 | AACTTCTTCCAATGAAAGGTTAACCTGCTG | 1.57
11 | GGAAAAAGGGACAAAACTTCAAAGCCCCTG | 1.22
12 | CCCATGGCAGAGGCTGTACTCCTCACTGTT | -0.921
13 | CTGGGCCCAAGTGCTCCTCCCCATCTCAGC | 2.96
14 | GATCCAGTGTGCAAATGTGTCTTTTTTAGT | 1.59
15 | GGGATGAGGACTTTGATCAGCAATGGAGAG | 3.75
16 | ACAGAAGCTGCTCTAAGAATGCAGAAACAA | -1.29
17 | AAGGTAGGTAAGGGGGAATGCCAACAGGTC | -1.2
18 | AAAATTCCTTATGGTTAAGGTGAAAGTCCG | 4.44
19 | CTTGTTAGTAGGGTCAAAGTCTGGATCCGT | 5.68
20 | TCTTGTCCTTCCCCTTTTGTGTTTGTCCCT | 3.03
21 | TATCTATTGGGTACAATGTTCACTATTTGA | 3.4
22 | TGCTTTAGGCCACCTGTGTCAACATGGACT | 2.98
23 | GCTAGAGAGTTCAAGAAGGGCAGTTGACAG | -0.925
24 | TTGGAAAGGCAGAGGAAAGCCCTAGCTGAC | -1.32

Row | Sequence | binding signal (log2 normalized intensity)
25 | CAAAAAGGCAAAGGTGTCAGGACCTTTCTT | -0.244
26 | CTTTCTATCAGCTCTCCGTGGACTTTGCCC | 9.95
27 | TTTCCCCCTCACTGAATATGTTCGGGAGAC | 2.89
28 | ACCCGGTGTGCGTGGGTGGGAAATCATTCC | -0.666
29 | GAATGTCGTGCCCTAATCTCACTCTTTGTT | 1.01
30 | GAGCAAATACAGCACTCAAATGATCAAAGA | -1.36
31 | AAACCCAAGATTTGGTGTTACCTTTGGACT | 6.32
32 | GCAGATGCTGGGCAAAGGGCAAGGCGTCTC | 3.09
33 | CTCTGTCATGTTCAATATACAGTTGGTATT | 1.76
34 | AATTCTAGTCCTATCACTGTCTAGCTGTGT | 1.16
35 | CCATTTGCGCTGGTTTTATGGTGTCTTATC | 1.85
36 | CTGTCATGGTGCTGGCGGGAGCATAGCAGC | 0.259
37 | CCAGACCAAGAGCTTAACCTTTGCCATGTG | 3.95
38 | TTTGGGCGGGGAAAAGGGAGTAAAGGTCAC | 6.15
39 | CCAGATGATCTTTACCCTGGAATGCTGTTA | 1.74
40 | AGGACCTTGGGTTCATTTTACAATGCAAAC | 0.623
41 | TTTCACGATAAAATACACAGGTAAACATTT | -1.23
42 | TTCAAATTCTTTGCCATGACCTTTGAAGCC | 7.52
43 | GGGATTGGGGATGCTCAAAGTACACTTGGA | 1.73
44 | TGTTGAATACTTGGAGACAGTGAGACGCAA | -1.32
45 | GAGGATTAGTGGGAGATAAGGTGGAAAGAC | -1.28
46 | TTTCAAACACCTGGGTCTGACCTCTTTCAA | 3.43
47 | CAAGAATGCGTCATCCGCATCTGAAGATAA | -1.39
48 | AAGGTTGACACCTAGCTGAGCAGGGGACTA | -1.4

Row | Sequence | binding signal (log2 normalized intensity)
49 | CTTCTCTGCCTCAGAACTTCACTCAGTGGG | 1.23
50 | GATAAGAGCAAGAAACAGCAAATGCTTTTA | -1.3
51 | TCTGACTGGCCCAGCCTGGCCTCTAGAGTG | -1.44
52 | CACCTTTGGATCCAGCTCCTGATGTTTGGT | 2.43
53 | CTTTGGTATGGACTGATATTCAAACAGGTC | 1.39
54 | TCTGCCCCTTATCTTCTGGCCACCTCTTCC | 1.7
55 | ATCCTGGCTCTCCCACTTATCAGCCATGTG | -1.19
56 | AGGTAACATACCAAAAAGCATAACTGTATA | -1.25
57 | GCGGCTTCAGAGGCCAGCAGTGCTTTTCCC | -1.2
58 | CTGGGATGAGATACCCATTCACATGACCTT | 3.92
59 | AGTAACACAGTAAGAGACTTCACCATCTGC | -1.3
60 | GCAGACTTAGACCCTGACCTGGCATATCTC | 2.95
61 | TCCTCAGGGAATTTCTAGGTTTGATCTTTG | 3.49
62 | GGAGTGTGGGGTGGTGTCAGGAGTACAGGT | 1.12
63 | GGAGAGCTAGTAAGGAGCTGAGTCATAGTG | -1.25
64 | ACACCATTAGAGAACATGTACTTTGTACTG | 6.41
65 | TGCAGCTGCTGCCCAAAGGTCACCTCTTCA | 4.68
66 | ATATAACCCTTGAACCTTCTTCTTGCAGTC | 3.34
67 | AAGGGTCAAGGGTCATTTGTTTTTACAGAC | 6.77
68 | GGTGTAGGTGCTGCACCTTGAAACCCCTCC | 3.68
69 | AGAATGCGAACCATTTCCCATGGGACTGGC | -1.14
70 | CCCAGGGGCTCCCACCAGGGGGAGGCTCAG | -1.24
71 | GCCATTGTCCTTTGGGCTCATCCATTTTCC | 1.63
72 | AGGGCATATTGACTGCCCCAACGCCTCCTT | 1.53

Row | Sequence | binding signal (log2 normalized intensity)
73 | GCAAGCTTGACCTTTGATCCAGGCTCAGTG | 8.22
74 | TATACAGTTGTGGGTATGTCTGTAGGTAAG | 1.37
75 | GCACGCTTAGGGAACAAAGGTCAGTCCCGC | 6.37
76 | TATGACCAGTGTGTTGTGCTGACCTCCTGT | 3.34
77 | TTGACTGCAGAAGATAAGAATCTCTTTGTA | -1.29
78 | GCAGGGCTGCCTCGCTTCCGGGTGGGAGCT | -1.36
79 | AAGGCAGGAGATTCCACATTCCCTTCTTAG | -1.27
80 | AGTTAGGCAGGATGGGGTCATGATAAGAGC | 0.656
81 | GCAGAATGAGCAAGGTGGGTTCAGAGACCC | 0.0383
82 | TCTTCCTAGGCAATCCCATGACCTTTGTAC | 9.08
83 | TAAAATGCCCTCACAGGTTCCAGCATGGAC | 1.57
84 | TCAACCTCTCTGGGGGATGGGTCCACACAG | 2.31
85 | GGGAGATAGTCTGAGAGTCACTGCCTTATC | -1.06
86 | GGGGCAGGCAGGGGATGAGATCTGAAGATA | -1.18
87 | CCAGTTCCAAAGTCCAGGTGCTTTCTTCTT | 5.37
88 | ACACTGCAGGCTCTGTCCCCGCCCAGCAGA | 3.09
89 | AAGAAGTATGAAAGATGACTACCAGGTTCT | -1.27
90 | GCTCCGCTTACTCGGCCTGGACCCCTCCGG | 2.31
91 | AGGTTCTCATACCTTCTGCTTCAGTTTTGC | 0.549
92 | GGCAGAAGGTTCCAGGGAACTGTCCACCAA | -1.28
93 | TAAATTCCAGAAAGCAACAAAAACCAAATC | -1.25

Source: paper PMC10726135
